Where a chain is given by its changes, count along the chain named. In names and notes the source's numbering stands. These are yes or no findings as the source states them, for the method shown. Some entries that bind do so weakly or less than the wild type. For part of these data: Sequences can lack the tags named with a protein.

Test [1] concerns the target VARP ANKRD1 (451-640):Rab32(Q85L) 1:1 heterodimer (UniProt Q96NW4). Briefly: SEC; analytical gel filtration of the VARP ANKRD1:Rab32 complex at different concentrations; both purified. On the technique in general: SEC sorts molecules by how far they enter the pores of the column.
Test [2] shares this target. As to the kind of experiment: SEC-MALS; size exclusion chromatography with multiangle light scattering, data not shown; both purified.
The target is the same in test [3]. Briefly: crystal structure; sitting drop vapor diffusion at 18°C, PEG 3350, 200 mM sodium citrate pH 8.0; molecular replacement; both purified.
In test [4] the target is T1, VARP451-640His6 L513D (human) (UniProt Q96NW4).
T1 sequence: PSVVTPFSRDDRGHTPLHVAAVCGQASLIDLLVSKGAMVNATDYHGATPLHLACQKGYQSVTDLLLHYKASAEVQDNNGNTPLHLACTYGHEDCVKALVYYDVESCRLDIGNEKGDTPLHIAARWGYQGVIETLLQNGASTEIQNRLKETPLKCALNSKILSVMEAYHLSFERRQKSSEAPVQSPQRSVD
As to the kind of experiment: ITC; Nano ITC; VARP constructs at 60 μM in the cell at 4°C, Rab constructs at 300 μM titrated, 24 injections of 2 μl; 50 mM HEPES pH 7.4, 200 mM NaCl, 5 mM MgCl2, 1 mM TCEP; both purified.

The target of test [5] is T2, VARP451-640His6 Q509A/Y550A (human) (UniProt Q96NW4).
T2 sequence: T1 sequence with Q59A, D63L, Y100A
Briefly: condition: Rab constructs at 300 μM titrated into VARP constructs at 60 μM; ITC; Nano ITC; VARP constructs at 60 μM in the cell at 4°C, Rab constructs at 300 μM titrated, 24 injections of 2 μl; 50 mM HEPES pH 7.4, 200 mM NaCl, 5 mM MgCl2, 1 mM TCEP; both purified.

Another test deals with T3, GSTRab32(Q85L) (UniProt Q13637).
T3 sequence: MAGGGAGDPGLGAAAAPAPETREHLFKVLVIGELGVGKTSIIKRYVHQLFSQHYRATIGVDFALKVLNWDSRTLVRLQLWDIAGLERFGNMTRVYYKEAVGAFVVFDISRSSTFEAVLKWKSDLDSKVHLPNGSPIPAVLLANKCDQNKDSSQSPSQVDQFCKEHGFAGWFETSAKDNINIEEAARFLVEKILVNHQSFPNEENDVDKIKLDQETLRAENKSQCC
As to the kind of experiment: pull-down; GSTRab32(Q85L) or GST as bait on GSH-sepharose, VARP451-640His6 as prey; 25-50 μg bait, 300 μg prey in 500 μl; 5 mM MgCl2, 0.5 mM TCEP, 100 μM matching nucleotide; 1 hr at 4°C; washes with 1% NP40; Coomassie and anti-His probe blot; both purified.

Test [6] has as its target T4, VARP451-640His6 (first ankyrin repeat domain, ANKRD1), wild type (human) (UniProt Q96NW4).
T4 sequence: T1 sequence with D63L
Briefly: crystal structure; sitting drop vapor diffusion at 18°C, PEG 3350, 200 mM sodium citrate pH 8.0; molecular replacement; both purified.

B1: VARP ANKRD1 (451-640):Rab32(Q85L) 1:1 heterodimer (complex, UniProt Q96NW4 451-640; Q13637 1-225)
chain 1: T1 sequence with D63L
chain 2: T3 sequence
Consider B1, for which the binding result in test [1], in test [2] and in test [3] was “binds” throughout.

B2: Rab32 1-225 (Q85L), GTP hydrolysis-defective mutant, GST removed (enzyme, UniProt Q13637 1-225)
chain: T3 sequence
In the case of B2, the values for the binding result in test [4] and in test [5] were “no binding (tested: KD > 300 μM)” and “no binding”, respectively.

B3: VARP451-640His6 L513D/K546D (domain or fragment, UniProt Q96NW4 451-640)
chain: T1 sequence with K96D
For B3, in the test with GSTRab32(Q85L), the binding entry was “no binding (tested: 300 μg prey protein in 500 μl)”.

B4: VARP451-640His6 L513D (domain or fragment, UniProt Q96NW4 451-640)
chain: T1 sequence
Consider B4, for which, in the test with GSTRab32(Q85L), the binding result is “no binding (tested: 300 μg prey protein in 500 μl)”.

B5: VARP451-640His6 Q509A/Y550A (domain or fragment, UniProt Q96NW4 451-640)
chain: T1 sequence with Q59A, D63L, Y100A
With B5, the binding result with GSTRab32(Q85L) is on record as “no binding (tested: 300 μg prey protein in 500 μl)”.

B6: SeMet-Rab38 (Q69L) (enzyme, UniProt P57729 1-211)
chain: MQAPHKEHLYKLLVIGDLGVGKTSIIKRYVHQNFSSHYRATIGVDFALKVLHWDPETVVRLQLWDIAGLERFGNMTRVYYREAMGAFIVFDVTRPATFEAVAKWKNDLDSKLSLPNGKPVSVVLLANKCDQGKDVLMNNGLKMDQFCKEHGFVGWFETSAKENINIDEASRCLVKHILANECDLMESIEPDVVKPHLTSTKVASCSGCAKS
modifications: selenomethionine (SeMet protein)
On to B6, for which the binding entry in test [6] is “binds”.
